# ChEMBL document CHEMBL1156829
# Whole data set: some 5,400 compounds, median “IFI” near 2, cut for the highest 2% near 22. This is one part of the list.
# Assay: NOVARTIS: Inhibition Frequency Index (IFI) - the number of HTS assays where a compound showed > 50% inhibition/induction, expressed as a percentage of the number of assays in which the compound was tested.
# Assay type: functional
row,SMILES,IFI [%]
1,Cc1nc(-c2nc3c(s2)CN(C(=O)c2ccncc2)CC3)cs1,5.56
2,CCN1C(=Cc2ccc3c4ccoc4ccc3[n+]2CC)C=Cc2c1ccc1occc21,28.6
3,O=C(NC1CCN(CC(O)CN(Cc2ccccc2)S(=O)(=O)c2ccccc2)C1)c1ccsc1 (centres undefined),1.91
4,COc1ccc(-c2nc(NC(=O)CS(=O)(=O)c3ccccc3)sc2C)cc1,0
5,Fc1ccc(Nc2nc(NCC3CCCO3)c3ccccc3n2)cc1 (centres undefined),0
6,COc1ccc(N2C(=O)/C(=C3/C(=O)Nc4ccc(F)cc43)SC2=S)c(OC)c1,0
7,CCN(CC)CCCNC(=S)N(Cc1ccc(F)cc1)Cc1cc2cc(C)cc(C)c2[nH]c1=O,11.7
8,CN(CCCNc1ccnc2cc(Cl)ccc12)C(=O)/C=C/c1ccccc1,0.935
9,Cn1c(C(C#N)C(=S)NC2CCCCC2)nc2cccnc21 (centres undefined),7.14
10,CN(CCCNc1ccnc2cc(Cl)ccc12)C(=O)C1CCC1,3.7
11,COc1ccc(CCN2CC(CNC(=O)Cc3cccnc3)C(c3ccc(N(C)C)cc3)C2)cc1OC (centres undefined),4.29
12,CN(C)C=Nc1nn(C)cc1C(=O)Nc1ccc(F)c(Cl)c1,0.82
13,CC(=NO)c1ccc2c(c1)C(C)(C)CCC2(C)C,4.17
14,CC(=O)Nc1cc(C(F)(F)F)cc(C(F)(F)F)c1,0
15,O=C(NCCc1ccccc1)c1cnc(NCCCN2CCCC2)nc1Nc1ccccc1,0.962
16,COc1c([N+](=O)[O-])cc2c(c1Br)OC1(C=C2)N(C)c2ccccc2C1(C)C (centres undefined),0
17,CCOc1ccc(N(CC)S(=O)(=O)c2cc(Br)cc3c2N(C(C)=O)CC3)cc1,0
18,COc1ccc(CNc2cc(-c3ccc(F)c(F)c3)nc3ccnn23)cc1,3.03
19,CCOC(=O)c1c(NC(=O)CSc2nnc(CNC(=O)c3cccc(C)c3)n2-c2cccc(C)c2)sc2c1CCC2,2.33
20,COc1ccccc1NC(=O)N1CCN(C(=O)c2nc(-c3ccccc3)nc(C)c2C(=O)OC(C)C)CC1C (centres undefined),0.943
21,CCOC(=O)CCC(=O)Oc1cc(C(C)(C)C)nn1-c1ccc(Cl)c(Cl)c1,6.36
22,CC(CCc1ccccc1)N1CC(c2cccc([N+](=O)[O-])c2)OC1=S (centres undefined),0
23,CCN(CC)CCCC(C)Nc1ccnc2cc(Cl)ccc12 (centres undefined),1.16
24,CCCCN1C(=O)/C(=C2/Sc3ccccc3N2C)SC1=Nc1cc(C)ccc1C,0
25,CCOc1cc([N+](=O)[O-])cc(C=Nc2cccc(NC(=O)c3ccco3)c2)c1O,7.14

row,SMILES,IFI [%]
1,C#CC[N+]1(CC#Cc2cccc3ccccc23)CCCCC1,3.64
2,COc1cc(C=NNC(=O)Cc2nnc(N)s2)ccc1O,7.69
3,OC(CN1CCN(C2c3ccccc3-c3ccccc32)CC1)Cn1c2ccc(Br)cc2c2cc(Br)ccc21 (centres undefined),1.51
4,COc1ccc(C2CC(=O)C3=C(C2)NC(C)=C(C(=O)OC2CCCC2)C3c2ccc(F)cc2)cc1 (centres undefined),3.49
5,Cc1ccc(Cn2c(N3CCC(C(=O)NCc4cccs4)CC3)nc3ccccc32)cc1,2.7
6,c1ccc([Si]2(c3ccccc3)N[Si](c3ccccc3)(c3ccccc3)N[Si](c3ccccc3)(c3ccccc3)N2)cc1,1.98
7,CC1=NN(c2ccc(C(=O)O)cc2)C(=O)/C1=C\c1ccc([N+](=O)[O-])o1,4.76
8,O=C(CSc1ccc2nnc(-c3cccc(F)c3)n2n1)Nc1ccc2c(c1)OCO2,0
9,CC(C)COc1nc(-c2ccccc2)n(S(=O)(=O)c2cccc3cccnc23)n1,4.17
10,CC(C)CNC(=O)c1cnc(NCCCN2CCCCC2C)nc1NCC1CCCCC1 (centres undefined),2.88
11,COC(=O)C1=CNC=C(C(=O)OC)C1c1cc(OC)c(OC)cc1OC,4.88
12,CCC(c1nc2ccccc2c(=O)n1-c1cccc(C)c1)N(CCc1ccccc1)C(=O)Nc1c(C(C)C)cccc1C(C)C (centres undefined),0.943
13,COc1cc(-c2cc(C)c3c(OC)ccc(OC)c3n2)cc2c1OCCN(C(=O)CCn1nc(C)cc1C)C2,12.5
14,COc1ccc(-n2nc(C(=O)NCCC3=CCCCC3)c3ccccc3c2=O)cc1,3.57
15,CN(C)CCNCc1cc(-c2ccnc3cc(Cl)ccc23)ccc1O,1.75
16,Cn1nc(C(F)(F)F)c(C(=O)Nc2cccc(C(F)(F)F)c2)c1SCc1ccc(Cl)cc1,2.53
17,O=C(/C=C/c1ccccc1)Nc1ccc(C(=O)OC[C@@H]2CCCN3CCCC[C@H]23)cc1,0
18,COc1ccc2c(c1)-c1c(ssc1=S)C(C)(C)N2C(=O)c1ccccc1F,0
19,O=[N+]([O-])c1ccc(N2CCN(C(=S)Nc3ccccc3)CC2)cc1,0
20,COc1ccc(-c2n(C)c3ccccc3[n+]2CC(=O)OC2CC(C)CCC2C(C)C)cc1 (centres undefined),22.7
21,COc1ccccc1N1CCN(C(=O)Nc2ccc3ccccc3c2)CC1,0
22,CCCCCCn1c2c(c(=N)c3ccccc31)CCC2,7.14
23,CCNc1nc(NC(C)CC)nc(ON=C(C)C)n1 (centres undefined),0
24,CCCc1c(C)nc2ccc(Br)cc2c1O,3.03
25,C=CCSc1nc(N)c2c3c(sc2n1)CN(CCC)CC3,14

row,SMILES,IFI [%]
1,CCOC(=O)C1=C(C)NC2=C(C(=O)CC(c3ccc(OC)c(OC)c3)C2)C1c1cccc(C)c1 (centres undefined),8.75
2,CCOC(=O)c1c(NC(=O)CSc2nnc(CNC(=O)c3cccs3)n2-c2cccc(Cl)c2)sc2c1CCCC2,1.25
3,OCC1CCCN1c1nccnc1-c1ccccc1Oc1ccccc1 (centres undefined),0
4,O=C1C=C(Nc2ccc(O)cc2)c2ccccc2C1=O,7.75
5,COc1ccc(-c2cnc3ccc(NC4CCOCC4)nn23)cc1OC,0
6,O=C(Nc1cc(Cl)ccc1O)c1cnn2c(C(F)(F)F)cc(-c3ccc(F)cc3)nc12,2.3
7,O=C1CCC2C3C=CC(C3)C12 (centres undefined),1.25
8,O=C(NC1CC1)c1ccc(N2CCC(Cc3ccccc3)CC2)c([N+](=O)[O-])c1,0
9,CCc1c2ccc(C)n2cc[n+]1CC,6.02
10,Cc1ccc(-c2c3c(nc4sc(C(=O)Nc5ccc(Cl)cc5)c(N)c24)CCCC3)o1,2.3
11,CCCCC(CC)C(=O)N(CCCC(C)Nc1cc(OC)cc2cccnc12)Cc1ccc(OC)c(OC)c1 (centres undefined),1.85
12,CCc1n(CC(=O)OC2CC(C)CCC2C(C)C)c2ccccc2[n+]1C (centres undefined),7.14
13,Cc1cc(Nc2ccc(Br)cc2)n2nc(C)nc2n1,1.96
14,CCCCCc1ccc(OCCCC[n+]2cccc(C)c2C)c(CCCCC)c1,7.14
15,Cc1ccc(Cl)cc1Nc1nc2ccccc2n2c(C)nnc12,0
16,CCOC(=O)c1c(CNCCN(CC)CC)n(C)c2cc(Br)c(OC(C)=O)cc12,0
17,CCOc1ccc(NC(=O)c2ccc(I)o2)cc1,7.69
18,CN(CCCNc1ccnc2cc(Cl)ccc12)C(=O)c1cccc(Cl)c1,1.85
19,CCOc1ccccc1NC(=O)Cn1c(=O)n(Cc2ccccc2)c(=O)c2c(C)c(C(=O)N(C)C)sc21,6.25
20,Cc1cc(N2CCN(c3ccccn3)CC2)n2c(nc3ccccc32)c1C#N,0
21,CCCCCCCC(=O)N1CCN(CCN(Cc2ccc(F)cc2)C(=O)c2c(-c3c(F)cccc3Cl)noc2C)CC1,4.81
22,CC1=C(CC(=O)c2ccc(Cl)cc2)C(=O)c2ccccc2C1=O,9.76
23,COC(=O)C1=CNC=C(C(=O)OC)C1c1ccc(Cl)c(Cl)c1,6.1
24,COc1ccc([N+](=O)[O-])cc1NC(=O)C(C)Nc1ccc(N(C)C)cc1 (centres undefined),6.25
25,COc1ccc(OC)c(-c2ccc(O)c(CNCC(C)c3ccccc3)c2)c1 (centres undefined),3.51

row,SMILES,IFI [%]
1,CN(C)CCNc1cc(-c2ccc3ccccc3c2)nc2ccccc12,4.51
2,COc1ccc(Nc2nc(NN=Cc3cccc([N+](=O)[O-])c3)nc(Nc3ccc([N+](=O)[O-])cc3)n2)cc1,5.26
3,O=[N+]([O-])c1ccc2nc(NC3CCCCC3)c(NC3CCCCC3)nc2c1,7.69
4,Cc1ccc(NC2=C(c3ccc(C(F)(F)F)cc3)C(=O)c3ccccc32)cc1C,0
5,O=[N+]([O-])c1cc(C(F)(F)F)c(Cl)c([N+](=O)[O-])c1Nc1cc(C(F)(F)F)ccc1Cl,21.2
6,Cc1cc(N2CCCCC2)nc2ccc(NC(=O)c3cncc(Br)c3)cc12,0
7,O=c1c2ccccc2[nH]c2ccc(F)cc12,0
8,CCOc1ccc2nc(NCCNC(=O)c3ccco3)c(C)cc2c1,3.9
9,CC(C)(C)CC(C)(C)Nc1c(-c2ccccc2OC(=O)C2CCCC2)nc2ccccn12,3.77
10,CCN(CC)CCCC(C)Nc1c2ccc(Cl)cc2nc2ccc(OC)cc12 (centres undefined),6.95
11,c1ccc2c(c1)c1c(c3ccccc32)CN2CCCC2C1 (centres undefined),3.51
12,CCOC(=O)c1ccc(NC(=O)c2sc(NC(=O)c3cc(OC)c(OC)c(OC)c3)c(C(=O)OCC)c2C)cc1,2.33
13,CCCCCN(C(=O)Nc1ccccc1OC)C(CC)c1nc2ccccc2c(=O)n1-c1ccccc1OC (centres undefined),1.96
14,CCCCCC(=O)Oc1ccccc1-c1nc2cc(C)ccn2c1NC(C)(C)CC(C)(C)C,4.67
15,O=C(NCCCCNc1ccnc2cc(Cl)ccc12)c1ccco1,0.943
16,CCOC(=O)c1cnc2ccccc2c1NCCCN(C)C,0
17,O=C(Nc1ccc(F)c(F)c1)c1cc2cc(C3(O)CCN(Cc4ccccc4F)CC3)ccc2o1,2.97
18,CCN1C(=Cc2sc3ccccc3[n+]2C)C=Cc2ccc(C)cc21,23.8
19,CCOC(=O)c1c(N)n(-c2ccc(NC(=O)c3cccc([N+](=O)[O-])c3)cc2)c2nc3ccccc3nc12,6.25
20,COc1cccc2cc(-c3nc(-c4ccccc4)cs3)c(=O)oc12,6.45
21,Oc1cccc(Nc2nc(NCC3CCCO3)c3ccccc3n2)c1 (centres undefined),1.59
22,O=C(Nc1ccc(C2=NCCN2)cc1)c1cc(Cl)c(C(=O)Nc2ccc(C3=NCCN3)cc2)cc1Cl,0
23,CSCCN1CCc2ccc3[nH]cc(-c4cccc(Cl)c4)c3c2C1,5.56
24,CC(=O)C1=C(O)C(=O)N(c2ccc(Br)cn2)C1c1ccccc1[N+](=O)[O-] (centres undefined),0
